# Results taken from PMC6443190, “Regulation of anthocyanin accumulation via MYB75/HAT1/TPL-mediated transcriptional repression” (PLoS Genetics, 2019).
# Results are given in words; binding and its absence hold for the method and conditions named. For part of these data: Binding seen in cells or lysates may run through a third protein. Some entries that bind do so weakly or less than the wild type. For part of these data: Tags and fused reporters may be left off the sequences shown.
# T1: HAT1 (bait of the yeast two-hybrid screen) (Arabidopsis thaliana) (UniProt P46600)
# T1 sequence: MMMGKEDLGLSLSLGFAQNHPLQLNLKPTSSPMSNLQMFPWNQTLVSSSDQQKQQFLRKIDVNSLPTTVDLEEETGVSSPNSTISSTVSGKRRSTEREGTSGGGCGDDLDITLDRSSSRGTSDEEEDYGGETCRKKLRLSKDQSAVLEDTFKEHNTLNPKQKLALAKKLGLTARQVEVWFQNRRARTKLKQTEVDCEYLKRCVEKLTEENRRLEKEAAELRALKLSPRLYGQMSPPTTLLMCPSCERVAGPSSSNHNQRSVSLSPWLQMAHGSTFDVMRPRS
# T2: MYB75-nYFP (Arabidopsis thaliana) (UniProt Q9FE25)
# T2 sequence: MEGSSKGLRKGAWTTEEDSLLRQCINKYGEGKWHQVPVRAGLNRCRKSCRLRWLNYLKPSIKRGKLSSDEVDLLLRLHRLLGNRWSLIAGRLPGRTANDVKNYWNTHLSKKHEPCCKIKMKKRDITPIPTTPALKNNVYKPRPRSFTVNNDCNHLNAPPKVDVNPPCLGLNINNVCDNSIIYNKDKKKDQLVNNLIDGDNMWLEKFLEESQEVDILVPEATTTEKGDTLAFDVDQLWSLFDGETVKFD
# T3: MYB75-cYFP (Arabidopsis thaliana) (UniProt Q9FE25)
# T3 sequence: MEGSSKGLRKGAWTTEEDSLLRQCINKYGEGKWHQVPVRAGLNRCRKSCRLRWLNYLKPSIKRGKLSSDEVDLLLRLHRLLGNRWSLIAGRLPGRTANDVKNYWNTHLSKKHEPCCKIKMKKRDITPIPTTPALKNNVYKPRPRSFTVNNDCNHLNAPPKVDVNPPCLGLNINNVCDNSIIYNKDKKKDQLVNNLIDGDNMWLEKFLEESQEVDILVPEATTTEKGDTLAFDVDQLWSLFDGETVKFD
# T4: MYB75 (pGBKT7 fusion, yeast two-hybrid) (Arabidopsis thaliana) (UniProt Q9FE25)
# T4 sequence: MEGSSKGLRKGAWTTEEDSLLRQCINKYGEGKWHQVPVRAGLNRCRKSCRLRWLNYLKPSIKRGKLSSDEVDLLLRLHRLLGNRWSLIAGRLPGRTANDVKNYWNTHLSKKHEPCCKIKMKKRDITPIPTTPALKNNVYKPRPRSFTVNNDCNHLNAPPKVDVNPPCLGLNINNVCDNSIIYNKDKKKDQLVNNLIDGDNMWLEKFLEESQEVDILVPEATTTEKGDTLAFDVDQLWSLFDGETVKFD
# Columns and labels:
# [1] = target: T1, HAT1 (bait of the yeast two-hybrid screen) (Arabidopsis thaliana); test: two-hybrid; yeast two-hybrid screen for interaction partners of HAT1; library and constructs not described
# [2] = target: T2, MYB75-nYFP (Arabidopsis thaliana); test: split reporter; BiFC; nYFP and cYFP fusions coinfiltrated in N. benthamiana leaves
# [3] = target: T3, MYB75-cYFP (Arabidopsis thaliana); test: split reporter; BiFC in N. benthamiana leaves with HAT1-FLAG or empty FLAG vector coexpressed; YFP read 48 h after coexpression
# [4] = target: T4, MYB75 (pGBKT7 fusion, yeast two-hybrid) (Arabidopsis thaliana); test: two-hybrid; directed assay; yeast AH109 with pairs of pGADT7 and pGBKT7 plasmids; growth on SD-Leu/-Trp/-Ade/-His
Binder,binding [3],binding [4],further results
"MYB75 (hit of the yeast two-hybrid screen) (protein, UniProt Q9FE25 1-248) MEGSSKGLRKGAWTTEEDSLLRQCINKYGEGKWHQVPVRAGLNRCRKSCRLRWLNYLKPSIKRGKLSSDEVDLLLRLHRLLGNRWSLIAGRLPGRTANDVKNYWNTHLSKKHEPCCKIKMKKRDITPIPTTPALKNNVYKPRPRSFTVNNDCNHLNAPPKVDVNPPCLGLNINNVCDNSIIYNKDKKKDQLVNNLIDGDNMWLEKFLEESQEVDILVPEATTTEKGDTLAFDVDQLWSLFDGETVKFD",–,–,binding [1]: binds
"HAT1-cYFP (protein, UniProt P46600 1-282) MMMGKEDLGLSLSLGFAQNHPLQLNLKPTSSPMSNLQMFPWNQTLVSSSDQQKQQFLRKIDVNSLPTTVDLEEETGVSSPNSTISSTVSGKRRSTEREGTSGGGCGDDLDITLDRSSSRGTSDEEEDYGGETCRKKLRLSKDQSAVLEDTFKEHNTLNPKQKLALAKKLGLTARQVEVWFQNRRARTKLKQTEVDCEYLKRCVEKLTEENRRLEKEAAELRALKLSPRLYGQMSPPTTLLMCPSCERVAGPSSSNHNQRSVSLSPWLQMAHGSTFDVMRPRS",–,–,binding [2]: binds
"TT8-nYFP (protein, UniProt Q9FT81 1-518) MDESSIIPAEKVAGAEKKELQGLLKTAVQSVDWTYSVFWQFCPQQRVLVWGNGYYNGAIKTRKTTQPAEVTAEEAALERSQQLRELYETLLAGESTSEARACTALSPEDLTETEWFYLMCVSFSFPPPSGMPGKAYARRKHVWLSGANEVDSKTFSRAILAKSAKIQTVVCIPMLDGVVELGTTKKVREDVEFVELTKSFFYDHCKTNPKPALSEHSTYEVHEEAEDEEEVEEEMTMSEEMRLGSPDDEDVSNQNLHSDLHIESTHTLDTHMDMMNLMEEGGNYSQTVTTLLMSHPTSLLSDSVSTSSYIQSSFATWRVENGKEHQQVKTAPSSQWVLKQMIFRVPFLHDNTKDKRLPREDLSHVVAERRRREKLNEKFITLRSMVPFVTKMDKVSILGDTIAYVNHLRKRVHELENTHHEQQHKRTRTCKRKTSEEVEVSIIENDVLLEMRCEYRDGLLLDILQVLHELGIETTAVHTSVNDHDFEAEIRAKVRGKKASIAEVKRAIHQVIIHDTNL",binds,–,–
"EGL3-nYFP (protein, UniProt Q9CAD0 1-596) MATGENRTVPDNLKKQLAVSVRNIQWSYGIFWSVSASQPGVLEWGDGYYNGDIKTRKTIQAAEVKIDQLGLERSEQLRELYESLSLAESSASGSSQVTRRASAAALSPEDLTDTEWYYLVCMSFVFNIGEGIPGGALSNGEPIWLCNAETADSKVFTRSLLAKSASLQTVVCFPFLGGVLEIGTTEHIKEDMNVIQSVKTLFLEAPPYTTISTRSDYQEIFDPLSDDKYTPVFITEAFPTTSTSGFEQEPEDHDSFINDGGASQVQSWQFVGEEISNCIHQSLNSSDCVSQTFVGTTGRLACDPRKSRIQRLGQIQEQSNHVNMDDDVHYQGVISTIFKTTHQLILGPQFQNFDKRSSFTRWKRSSSVKTLGEKSQKMIKKILFEVPLMNKKEELLPDTPEETGNHALSEKKRREKLNERFMTLRSIIPSISKIDKVSILDDTIEYLQDLQKRVQELESCRESADTETRITMMKRKKPDDEEERASANCMNSKRKGSDVNVGEDEPADIGYAGLTDNLRISSLGNEVVIELRCAWREGILLEIMDVISDLNLDSHSVQSSTGDGLLCLTVNCKHKGTKIATTGMIQEALQRVAWIC",binds,–,–
"HAT1-FLAG (protein, UniProt P46600 1-282) MMMGKEDLGLSLSLGFAQNHPLQLNLKPTSSPMSNLQMFPWNQTLVSSSDQQKQQFLRKIDVNSLPTTVDLEEETGVSSPNSTISSTVSGKRRSTEREGTSGGGCGDDLDITLDRSSSRGTSDEEEDYGGETCRKKLRLSKDQSAVLEDTFKEHNTLNPKQKLALAKKLGLTARQVEVWFQNRRARTKLKQTEVDCEYLKRCVEKLTEENRRLEKEAAELRALKLSPRLYGQMSPPTTLLMCPSCERVAGPSSSNHNQRSVSLSPWLQMAHGSTFDVMRPRS",binds,–,–
"HAT2 (yeast two-hybrid fusion) (protein, UniProt P46601 1-283) MMMGKEDLGLSLSLGFSQNHNPLQMNLNPNSSLSNNLQRLPWNQTFDPTSDLRKIDVNSFPSTVNCEEDTGVSSPNSTISSTISGKRSEREGISGTGVGSGDDHDEITPDRGYSRGTSDEEEDGGETSRKKLRLSKDQSAFLEETFKEHNTLNPKQKLALAKKLNLTARQVEVWFQNRRARTKLKQTEVDCEYLKRCVEKLTEENRRLQKEAMELRTLKLSPQFYGQMTPPTTLIMCPSCERVGGPSSSNHHHNHRPVSINPWVACAGQVAHGLNFEALRPRS",–,no binding,–
"HAT3 (yeast two-hybrid fusion) (protein, UniProt P46602 1-315) MSERDDGLGLSLSLSLGFNQKDPSSRLNPMPLASYASSSHMQHMQQSNYNHPQKIQNTWINMFQSSERNSDMRSFLRGIDVNRAPSTVVVDVEDEGAGVSSPNSTVSSVMSGKKSERELMAAAGAVGGGRVEDNEIERASCSLGGGSDDEDGSGNGDDSSRKKLRLSKEQALVLEETFKEHSTLNPKQKMALAKQLNLRTRQVEVWFQNRRARTKLKQTEVDCEYLKRCCENLTDENRRLQKEVSELRALKLSPHLYMHMKPPTTLTMCPSCERVAVTSSSSSVAPPVMNSSSPMGPMSPWAAMPLRQRPAAGSH",–,no binding,–
"ATHB2 (yeast two-hybrid fusion) (protein, UniProt Q05466 1-284) MMFEKDDLGLSLGLNFPKKQINLKSNPSVSVTPSSSSFGLFRRSSWNESFTSSVPNSDSSQKETRTFIRGIDVNRPPSTAEYGDEDAGVSSPNSTVSSSTGKRSEREEDTDPQGSRGISDDEDGDNSRKKLRLSKDQSAILEETFKDHSTLNPKQKQALAKQLGLRARQVEVWFQNRRARTKLKQTEVDCEFLRRCCENLTEENRRLQKEVTELRALKLSPQFYMHMSPPTTLTMCPSCEHVSVPPPQPQAATSAHHRSLPVNAWAPATRISHGLTFDALRPRS",–,no binding,–
"ATHB4 (yeast two-hybrid fusion) (protein, UniProt P92953 1-318) MGERDDGLGLSLSLGNSQQKEPSLRLNLMPLTTSSSSSSFQHMHNQNNNSHPQKIHNISWTHLFQSSGIKRTTAERNSDAGSFLRGFNVNRAQSSVAVVDLEEEAAVVSSPNSAVSSLSGNKRDLAVARGGDENEAERASCSRGGGSGGSDDEDGGNGDGSRKKLRLSKDQALVLEETFKEHSTLNPKQKLALAKQLNLRARQVEVWFQNRRARTKLKQTEVDCEYLKRCCDNLTEENRRLQKEVSELRALKLSPHLYMHMTPPTTLTMCPSCERVSSSAATVTAAPSTTTTPTVVGRPSPQRLTPWTAISLQQKSGR",–,no binding,–
